Results as given in patent US10765664B2, “Treatment of infectious diseases” (CHILDREN'S MEDICAL CENTER CORPORATION, priority 2015, dated 2020).

Legend:
Cryptosporidium parvum = conditions: gerbils; cited from earlier work
IFITM1 = type: cell-based; conditions: human macrophages; data not shown
[1] = test system: TNF, IL-1β, IL-2, IL-4, IL-6, IL-8, IL-10, and IFN-γ; assay: Cytokine levels in human PBMC supernatants by Luminex assay; conditions: 72 hrs
Method: FIG. 4 is a set of graphs showing that human PBMC were treated with NTZ at the indicated concentrations for 72 hrs and cellular supernatants were analyzed by Luminex assay to quantitate cytokine levels. […] Means of two donors and SEM are shown.

A549 cells = assay: Stress granule formation in A549 cells (anti-G3BP1 staining); conditions: 40 μM NTZ, 4 hrs
Method: (§1) FIGS. 18A-18C NTZ treatment leads to stress granule formation. (FIG. 18A) NTZ induces stress granule formation in A549 cells. A549 cells were mock-treated or treated with sodium arsenite (0.5 μM) for 1 hr or NTZ (40 μM) for 4 hrs. Stress granules were detected after fixation and permeabilization with Rb anti-G3BP1 and DyLight-594-anti-Rb IgG antibodies. (FIG. 18B) GADD34 transcription is induced by NTZ in A549 cells. A549 cells were treated with NTZ (40 μM) for the indicated lengths of time. RNA was then extracted and after oligoDT-based cDNA synthesis, GADD34 mRNA levels were measured by qPCR and normalized to cyclophilin B mRNA levels. Mean and SD of 3 independent experiments; *=p<0.05. (FIG. 18C) NTZ treatment of THP-1 cells results in increased cellular acidification. THP-1 cells were treated for 24 hrs with the indicated concentrations of NTZ (or IFN-beta as a positive control) and then stained with Lysotracker Red and analyzed by flow cytometry.

GADD34 = GADD34 mRNA by qPCR in A549 cells; conditions: 40 μM NTZ
Method: as §1

SAMHD1 = conditions: MDM, 3 or 24 hours

CC(=O)Oc1ccccc1C(=O)Nc1ncc(Cl)s1 [RM-5038]
activity against Cryptosporidium parvum infection compared to NTZ (Cryptosporidium parvum): improved activity

CC(=O)Oc1ccccc1C(=O)Nc1ncc([N+](=O)[O-])s1 [NTZ, [2-[(5-nitro-1,3-thiazol-2-yl)carbamoyl]phenyl] ethanoate]
IFITM1 gene expression (IFITM1): induces | TNF, IL-2, IL-4, IL-8, IL-10, and IFN-γ levels [1]: not affected | expression and release of IL-6 [1]: induces | expression and release of IL-β [1]: induces | stress granule formation (A549 cells): formation of stress granules was detected | GADD34 mRNA expression (GADD34): significant induction | SAMHD1 gene expression (SAMHD1): enhances
